The record followed here is publication PMC9811620.

Chains of the proteins cited; added tags and fusions are not shown. Lines headed by an entry give the natural chain unless they say otherwise; changes in a name come on top. A line that says so, or that is headed by a name, gives the form on record, which may keep a tag or linker. Residues count along the entry.
UniProt Q9JKF1: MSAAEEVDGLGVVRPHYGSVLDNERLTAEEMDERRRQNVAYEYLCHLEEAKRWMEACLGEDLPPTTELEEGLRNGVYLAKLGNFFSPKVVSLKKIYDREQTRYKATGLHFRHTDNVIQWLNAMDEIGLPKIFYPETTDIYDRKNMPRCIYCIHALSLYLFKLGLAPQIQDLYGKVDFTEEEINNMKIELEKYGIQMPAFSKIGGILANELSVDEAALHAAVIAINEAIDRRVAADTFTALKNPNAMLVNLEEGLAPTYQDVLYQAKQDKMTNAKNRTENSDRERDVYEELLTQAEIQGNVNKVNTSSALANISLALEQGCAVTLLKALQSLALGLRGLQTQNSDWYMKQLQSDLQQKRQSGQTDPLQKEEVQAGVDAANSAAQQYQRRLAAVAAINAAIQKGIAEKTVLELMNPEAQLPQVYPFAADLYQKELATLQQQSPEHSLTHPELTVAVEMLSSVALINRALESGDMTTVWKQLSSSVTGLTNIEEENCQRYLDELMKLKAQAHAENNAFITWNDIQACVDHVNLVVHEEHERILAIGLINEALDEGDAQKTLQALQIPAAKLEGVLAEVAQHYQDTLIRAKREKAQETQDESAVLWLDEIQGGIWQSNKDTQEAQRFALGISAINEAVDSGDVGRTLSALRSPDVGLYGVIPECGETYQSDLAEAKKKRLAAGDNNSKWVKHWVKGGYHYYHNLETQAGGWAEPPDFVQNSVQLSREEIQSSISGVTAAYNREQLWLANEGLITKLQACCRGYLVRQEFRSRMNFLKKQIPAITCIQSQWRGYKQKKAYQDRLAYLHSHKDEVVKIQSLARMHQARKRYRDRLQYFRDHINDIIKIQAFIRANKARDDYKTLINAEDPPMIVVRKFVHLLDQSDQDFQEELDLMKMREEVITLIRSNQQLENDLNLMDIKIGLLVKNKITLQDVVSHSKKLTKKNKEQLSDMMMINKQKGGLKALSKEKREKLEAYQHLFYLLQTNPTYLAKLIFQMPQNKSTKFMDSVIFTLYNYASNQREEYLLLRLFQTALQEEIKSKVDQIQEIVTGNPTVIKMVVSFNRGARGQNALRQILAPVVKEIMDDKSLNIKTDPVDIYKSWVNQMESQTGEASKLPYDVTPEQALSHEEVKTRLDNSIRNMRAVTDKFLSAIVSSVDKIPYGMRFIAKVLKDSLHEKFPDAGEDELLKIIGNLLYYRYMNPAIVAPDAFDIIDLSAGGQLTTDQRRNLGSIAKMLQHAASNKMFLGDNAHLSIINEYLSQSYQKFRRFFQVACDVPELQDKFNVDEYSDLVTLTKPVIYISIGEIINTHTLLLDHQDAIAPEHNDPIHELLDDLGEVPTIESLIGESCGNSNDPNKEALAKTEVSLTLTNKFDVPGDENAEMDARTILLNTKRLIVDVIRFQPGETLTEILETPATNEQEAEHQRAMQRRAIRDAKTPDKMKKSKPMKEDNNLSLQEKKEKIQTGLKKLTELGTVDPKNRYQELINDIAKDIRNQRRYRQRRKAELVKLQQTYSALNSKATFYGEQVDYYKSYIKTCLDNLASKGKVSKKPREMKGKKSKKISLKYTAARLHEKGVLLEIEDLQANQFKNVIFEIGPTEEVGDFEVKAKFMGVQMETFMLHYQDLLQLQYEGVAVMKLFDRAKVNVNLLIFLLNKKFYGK
mouse IQGAP1 deletion mutant lacking the IQ domain (4 IQ motifs, residues 745-856), in HEK293 cells (Q9JKF1, form named): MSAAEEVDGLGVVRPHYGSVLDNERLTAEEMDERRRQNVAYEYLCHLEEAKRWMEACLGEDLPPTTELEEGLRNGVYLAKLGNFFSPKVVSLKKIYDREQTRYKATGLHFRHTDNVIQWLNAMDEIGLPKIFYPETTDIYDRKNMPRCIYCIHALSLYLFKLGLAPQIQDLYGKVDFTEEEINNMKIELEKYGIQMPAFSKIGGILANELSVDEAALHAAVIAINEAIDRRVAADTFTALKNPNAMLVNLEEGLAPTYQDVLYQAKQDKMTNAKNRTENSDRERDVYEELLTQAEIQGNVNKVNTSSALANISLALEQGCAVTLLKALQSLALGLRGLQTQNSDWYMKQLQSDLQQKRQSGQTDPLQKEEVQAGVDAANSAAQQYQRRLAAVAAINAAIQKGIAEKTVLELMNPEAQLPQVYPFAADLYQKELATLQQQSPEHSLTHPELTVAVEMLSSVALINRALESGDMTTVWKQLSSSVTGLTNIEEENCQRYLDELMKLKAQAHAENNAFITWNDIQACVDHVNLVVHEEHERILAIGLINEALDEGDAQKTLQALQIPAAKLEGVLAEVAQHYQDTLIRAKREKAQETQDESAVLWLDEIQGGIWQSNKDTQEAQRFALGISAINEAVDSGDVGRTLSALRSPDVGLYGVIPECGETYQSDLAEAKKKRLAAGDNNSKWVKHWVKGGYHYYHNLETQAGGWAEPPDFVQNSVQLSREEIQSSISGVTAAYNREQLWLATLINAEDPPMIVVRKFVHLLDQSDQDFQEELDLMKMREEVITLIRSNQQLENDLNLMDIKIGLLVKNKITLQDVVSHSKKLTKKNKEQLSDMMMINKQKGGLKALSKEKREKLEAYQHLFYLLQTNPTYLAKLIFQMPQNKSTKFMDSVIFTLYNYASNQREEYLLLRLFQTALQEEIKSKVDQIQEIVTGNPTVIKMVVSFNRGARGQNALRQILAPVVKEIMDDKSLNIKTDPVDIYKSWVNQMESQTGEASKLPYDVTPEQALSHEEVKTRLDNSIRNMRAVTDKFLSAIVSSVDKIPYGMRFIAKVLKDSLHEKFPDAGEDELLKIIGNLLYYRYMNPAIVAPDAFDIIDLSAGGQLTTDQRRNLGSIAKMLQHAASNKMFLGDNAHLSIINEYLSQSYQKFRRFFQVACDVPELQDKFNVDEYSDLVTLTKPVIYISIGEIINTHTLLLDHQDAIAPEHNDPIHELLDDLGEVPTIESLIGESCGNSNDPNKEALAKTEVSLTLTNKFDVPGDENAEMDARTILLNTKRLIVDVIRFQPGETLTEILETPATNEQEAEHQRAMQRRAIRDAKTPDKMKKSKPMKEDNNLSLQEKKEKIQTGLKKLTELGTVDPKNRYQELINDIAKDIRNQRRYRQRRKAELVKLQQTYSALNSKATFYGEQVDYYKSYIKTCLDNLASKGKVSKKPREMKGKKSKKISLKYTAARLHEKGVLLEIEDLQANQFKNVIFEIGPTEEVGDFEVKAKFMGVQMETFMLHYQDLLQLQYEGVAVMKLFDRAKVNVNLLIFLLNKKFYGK
UniProt P60766: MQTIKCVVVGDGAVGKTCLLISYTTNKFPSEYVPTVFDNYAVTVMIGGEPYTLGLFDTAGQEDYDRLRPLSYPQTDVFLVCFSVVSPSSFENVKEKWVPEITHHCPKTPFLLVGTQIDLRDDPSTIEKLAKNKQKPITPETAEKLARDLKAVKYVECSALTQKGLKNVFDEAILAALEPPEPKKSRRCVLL
UniProt P46940: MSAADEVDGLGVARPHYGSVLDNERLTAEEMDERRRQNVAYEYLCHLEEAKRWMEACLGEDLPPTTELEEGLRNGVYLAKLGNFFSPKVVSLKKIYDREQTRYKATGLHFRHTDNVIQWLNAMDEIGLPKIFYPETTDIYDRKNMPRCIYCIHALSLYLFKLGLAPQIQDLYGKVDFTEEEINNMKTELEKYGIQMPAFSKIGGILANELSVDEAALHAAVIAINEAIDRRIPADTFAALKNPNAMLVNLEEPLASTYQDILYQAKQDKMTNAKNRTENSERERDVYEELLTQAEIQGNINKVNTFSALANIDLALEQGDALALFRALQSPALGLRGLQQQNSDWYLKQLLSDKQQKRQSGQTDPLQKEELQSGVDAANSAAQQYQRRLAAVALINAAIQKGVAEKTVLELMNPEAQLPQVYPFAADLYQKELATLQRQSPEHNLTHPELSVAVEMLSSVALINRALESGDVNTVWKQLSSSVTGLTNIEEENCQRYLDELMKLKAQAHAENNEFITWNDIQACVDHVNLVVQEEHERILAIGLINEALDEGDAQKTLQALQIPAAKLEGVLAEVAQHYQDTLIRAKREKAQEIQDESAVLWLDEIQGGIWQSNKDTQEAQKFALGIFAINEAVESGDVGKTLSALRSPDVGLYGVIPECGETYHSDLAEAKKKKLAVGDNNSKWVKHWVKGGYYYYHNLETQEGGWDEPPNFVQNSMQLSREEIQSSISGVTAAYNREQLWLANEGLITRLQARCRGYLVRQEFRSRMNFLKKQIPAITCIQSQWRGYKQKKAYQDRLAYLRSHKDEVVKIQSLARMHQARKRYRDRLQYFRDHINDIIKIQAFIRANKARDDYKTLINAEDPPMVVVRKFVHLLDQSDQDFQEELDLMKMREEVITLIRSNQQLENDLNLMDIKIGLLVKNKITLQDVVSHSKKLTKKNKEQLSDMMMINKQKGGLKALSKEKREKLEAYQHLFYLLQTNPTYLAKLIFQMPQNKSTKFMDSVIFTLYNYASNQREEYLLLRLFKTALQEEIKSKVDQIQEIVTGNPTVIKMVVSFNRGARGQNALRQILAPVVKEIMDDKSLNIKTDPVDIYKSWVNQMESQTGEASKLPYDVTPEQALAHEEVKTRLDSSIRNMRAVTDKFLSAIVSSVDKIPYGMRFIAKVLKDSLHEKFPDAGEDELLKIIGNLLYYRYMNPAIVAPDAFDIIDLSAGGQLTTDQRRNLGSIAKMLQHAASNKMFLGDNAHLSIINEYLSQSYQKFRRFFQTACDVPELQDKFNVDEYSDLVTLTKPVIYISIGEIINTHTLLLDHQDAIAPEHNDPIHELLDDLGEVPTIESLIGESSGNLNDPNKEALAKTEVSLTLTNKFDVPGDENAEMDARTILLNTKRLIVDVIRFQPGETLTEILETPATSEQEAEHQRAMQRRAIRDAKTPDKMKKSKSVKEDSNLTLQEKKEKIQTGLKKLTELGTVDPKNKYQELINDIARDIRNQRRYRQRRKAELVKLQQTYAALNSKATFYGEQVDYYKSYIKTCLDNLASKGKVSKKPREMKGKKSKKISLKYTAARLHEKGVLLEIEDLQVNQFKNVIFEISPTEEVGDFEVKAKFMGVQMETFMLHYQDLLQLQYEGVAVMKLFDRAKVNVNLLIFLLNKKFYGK
UniProt P46935: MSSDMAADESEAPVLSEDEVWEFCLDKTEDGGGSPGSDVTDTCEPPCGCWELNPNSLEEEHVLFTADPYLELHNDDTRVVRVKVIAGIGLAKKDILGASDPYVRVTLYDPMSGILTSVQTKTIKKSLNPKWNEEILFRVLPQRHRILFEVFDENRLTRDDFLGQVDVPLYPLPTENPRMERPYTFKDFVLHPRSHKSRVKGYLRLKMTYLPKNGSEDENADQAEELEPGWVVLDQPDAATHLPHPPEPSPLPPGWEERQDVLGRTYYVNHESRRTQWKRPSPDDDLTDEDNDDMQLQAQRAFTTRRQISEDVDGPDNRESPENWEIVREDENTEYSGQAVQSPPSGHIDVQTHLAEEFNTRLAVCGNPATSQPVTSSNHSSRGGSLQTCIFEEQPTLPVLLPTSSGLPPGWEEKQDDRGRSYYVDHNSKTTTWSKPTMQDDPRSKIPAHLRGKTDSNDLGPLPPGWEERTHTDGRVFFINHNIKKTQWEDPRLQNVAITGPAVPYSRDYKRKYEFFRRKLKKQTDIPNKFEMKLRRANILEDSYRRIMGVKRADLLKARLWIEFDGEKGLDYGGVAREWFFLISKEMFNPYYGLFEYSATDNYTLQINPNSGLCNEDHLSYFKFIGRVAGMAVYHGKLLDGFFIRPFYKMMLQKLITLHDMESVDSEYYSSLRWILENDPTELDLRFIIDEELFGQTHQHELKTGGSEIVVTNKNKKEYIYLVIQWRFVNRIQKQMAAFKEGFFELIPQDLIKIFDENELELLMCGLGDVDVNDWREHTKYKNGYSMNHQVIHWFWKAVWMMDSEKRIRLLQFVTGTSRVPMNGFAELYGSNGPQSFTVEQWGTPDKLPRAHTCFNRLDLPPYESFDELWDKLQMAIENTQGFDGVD

Substitutions are numbered along the chain they refer to. Names and notes keep the numbering of the source. Results are given in words; binding and its absence hold for the method and conditions named. In cells and extracts the contact can be indirect. Some results given as binding are weak or reduced against the parent protein; the word gives no strength.

In assay [1] the target is Ras GTPase-activating-like protein IQGAP1, endogenous in YAMC cells (mouse (endogenous in YAMC)) (UniProt Q9JKF1). Kind of assay: proximity ligation; Duolink PLA of endogenous proteins in YAMC cells after LPS or LPS plus ATP, cells fixed with 4% PFA, primary antibodies overnight at 4°C; knockout cells as controls.
For assay [2] the target is unchanged. As to the kind of experiment: co-IP; endogenous proteins from YAMC lysates (wild-type and knockout cells; untreated, LPS 4 h, or LPS plus ATP); lysis buffer with 0.5% Triton X-100, 50 mM Tris-HCl pH 7.4, 150 mM NaCl; antibody and protein A/G Sepharose overnight at 4°C; Western blot. (A western blot detects proteins with antibodies after separation by electrophoresis.)

The target in assay [3] is wild-type full-length mouse IQGAP1 (FL) restored in IQGAP1 KO YAMC cells (mouse) (UniProt Q9JKF1). As to the kind of experiment: proximity ligation; Duolink PLA in IQGAP1 KO YAMC cells restored with IQGAP1 FL, ΔIQ or ΔGRD, LPS plus ATP treated.
For assay [4], the target named is T1, Gasdermin D (GSDMD), endogenous in HT-29 cells (human (endogenous in HT-29)) (UniProt P57764).
T1 sequence: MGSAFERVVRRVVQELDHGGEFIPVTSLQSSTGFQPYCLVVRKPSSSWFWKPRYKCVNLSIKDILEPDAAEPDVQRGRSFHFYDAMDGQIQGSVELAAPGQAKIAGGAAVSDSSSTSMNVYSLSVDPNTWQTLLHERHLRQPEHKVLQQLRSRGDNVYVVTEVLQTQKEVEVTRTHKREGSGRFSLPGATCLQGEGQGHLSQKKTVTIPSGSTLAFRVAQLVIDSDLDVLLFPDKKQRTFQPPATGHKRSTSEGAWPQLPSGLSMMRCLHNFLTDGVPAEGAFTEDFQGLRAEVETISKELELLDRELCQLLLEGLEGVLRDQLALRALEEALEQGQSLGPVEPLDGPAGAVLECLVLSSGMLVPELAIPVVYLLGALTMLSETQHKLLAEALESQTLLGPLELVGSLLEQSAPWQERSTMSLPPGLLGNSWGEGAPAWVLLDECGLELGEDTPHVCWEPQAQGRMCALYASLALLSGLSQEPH
As to the kind of experiment: proximity ligation; Duolink PLA of endogenous IQGAP1 and GSDMD in HT-29 cells (scramble or IQGAP1 siRNA) after LPS 4 h and ATP 30 min.

Assay [5] addresses T2, Gasdermin D (GSDMD), endogenous in YAMC cells (mouse (endogenous in YAMC)) (UniProt Q9D8T2).
T2 sequence: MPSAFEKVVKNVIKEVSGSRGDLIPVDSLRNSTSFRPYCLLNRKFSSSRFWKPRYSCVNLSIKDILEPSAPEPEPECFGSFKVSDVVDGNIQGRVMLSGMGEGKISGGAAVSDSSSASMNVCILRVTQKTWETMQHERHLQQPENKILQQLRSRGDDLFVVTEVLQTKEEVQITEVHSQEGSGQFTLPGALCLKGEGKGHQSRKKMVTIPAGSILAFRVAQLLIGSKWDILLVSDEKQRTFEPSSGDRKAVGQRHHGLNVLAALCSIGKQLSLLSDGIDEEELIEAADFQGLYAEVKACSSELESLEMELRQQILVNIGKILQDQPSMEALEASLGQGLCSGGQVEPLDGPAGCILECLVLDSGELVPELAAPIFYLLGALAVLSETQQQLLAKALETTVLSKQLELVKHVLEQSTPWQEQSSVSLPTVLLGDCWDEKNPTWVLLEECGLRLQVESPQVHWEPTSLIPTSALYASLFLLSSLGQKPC
Kind of assay: co-IP; endogenous proteins from YAMC lysates (wild-type and knockout cells; untreated, LPS 4 h, or LPS plus ATP); lysis buffer with 0.5% Triton X-100, 50 mM Tris-HCl pH 7.4, 150 mM NaCl; antibody and protein A/G Sepharose overnight at 4°C; Western blot.

Assay [6] addresses T2, Gasdermin D (GSDMD), endogenous in YAMC cells (mouse (endogenous in YAMC)). Kind of assay: proximity ligation; Duolink PLA of endogenous proteins in YAMC cells after LPS or LPS plus ATP, cells fixed with 4% PFA, primary antibodies overnight at 4°C; knockout cells as controls.
For assay [7] the target is unchanged. As to the kind of experiment: proximity ligation; Duolink PLA in IQGAP1 KO YAMC cells restored with IQGAP1 FL, ΔIQ or ΔGRD, LPS plus ATP treated.
The target of assay [8] is Ras GTPase-activating-like protein IQGAP1, endogenous in YAMC cells (mouse (endogenous in YAMC)) (UniProt Q9JKF1). As to the kind of experiment: co-IP; endogenous proteins from YAMC lysates (wild-type and knockout cells; untreated, LPS 4 h, or LPS plus ATP); lysis buffer with 0.5% Triton X-100, 50 mM Tris-HCl pH 7.4, 150 mM NaCl; antibody and protein A/G Sepharose overnight at 4°C; Western blot. This is another data set of the same source.

Assay [9] concerns the target full-length mouse IQGAP1 overexpressed in HEK293 cells (mouse) (UniProt Q9JKF1). As to the kind of experiment: co-IP; proteins overexpressed in HEK293 cells; lysis buffer with 0.5% Triton X-100, 50 mM Tris-HCl pH 7.4, 150 mM NaCl; antibody and protein A/G Sepharose overnight at 4°C; Western blot.
The target in assay [10] is Ras GTPase-activating-like protein IQGAP1, endogenous in YAMC cells (mouse (endogenous in YAMC)) (UniProt Q9JKF1). As to the kind of experiment: co-IP; GSDMD KO YAMC cells restored with GSDMD (WT or D276A), endogenous IQGAP1; cells treated as indicated; Western blot.
The target in assay [11] is mouse IQGAP1 deletion mutant lacking the IQ domain (4 IQ motifs, residues 745-856), in HEK293 cells (mouse) (UniProt Q9JKF1). As to the kind of experiment: co-IP; proteins overexpressed in HEK293 cells; lysis buffer with 0.5% Triton X-100, 50 mM Tris-HCl pH 7.4, 150 mM NaCl; antibody and protein A/G Sepharose overnight at 4°C; Western blot.
Assay [12] addresses T2, Gasdermin D (GSDMD), endogenous in YAMC cells (mouse (endogenous in YAMC)). Kind of assay: co-IP; endogenous proteins from YAMC lysates (wild-type and knockout cells; untreated, LPS 4 h, or LPS plus ATP); lysis buffer with 0.5% Triton X-100, 50 mM Tris-HCl pH 7.4, 150 mM NaCl; antibody and protein A/G Sepharose overnight at 4°C; Western blot. This is another data set of the same source.

Regarding “CDC42, endogenous in YAMC cells (from UniProt P60766 1-191)”, the binding result in [1], in assay [2] and in assay [3] was “binds” each time.

Regarding “IQGAP1, endogenous in HT-29 cells (from UniProt P46940 1-1657)”, in assay [4], the binding entry was “binds”. On to “NEDD4, endogenous in YAMC cells (from UniProt P46935 1-887)”, for which, in assay [5], the binding result is “binds”.

Regarding “Ras GTPase-activating-like protein IQGAP1, endogenous in YAMC cells (from UniProt Q9JKF1 1-1657)”, the binding result in [6] and in assay [5] was “binds” in each case. For “mouse IQGAP1 with deletion in its IQ domain (ΔIQ) restored in IQGAP1 KO YAMC cells (from UniProt Q9JKF1 1-1657)”, the binding entry in assay [7] is “no binding”.

B1: Tsg101, endogenous in YAMC cells (protein, UniProt Q61187 1-391)
chain: MAVSESQLKKMMSKYKYRDLTVRQTVNVIAMYKDLKPVLDSYVFNDGSSRELVNLTGTIPVRYRGNIYNIPICLWLLDTYPYNPPICFVKPTSSMTIKTGKHVDANGKIYLPYLHDWKHPRSELLELIQIMIVIFGEEPPVFSRPTVSASYPPYTATGPPNTSYMPGMPSGISAYPSGYPPNPSGYPGCPYPPAGPYPATTSSQYPSQPPVTTVGPSRDGTISEDTIRASLISAVSDKLRWRMKEEMDGAQAELNALKRTEEDLKKGHQKLEEMVTRLDQEVAEVDKNIELLKKKDEELSSALEKMENQSENNDIDEVIIPTAPLYKQILNLYAEENAIEDTIFYLGEALRRGVIDLDVFLKHVRLLSRKQFQLRALMQKARKTAGLSDLY
As to B1, the binding entry in [8] is recorded as “binds”.

B2: mouse GSDMD cleavage mutant D276A overexpressed in HEK293 cells (protein, UniProt Q9D8T2 1-487)
chain: T2 sequence with D276A
As to B2, the binding entry in assay [9] is “binds”.

B3: mouse GSDMD cleavage mutant D276A restored in GSDMD KO YAMC cells (protein, UniProt Q9D8T2 1-487)
chain: T2 sequence with D276A
On to B3, for which, in assay [10], the binding entry is given as “binds”.

B4: full-length mouse GSDMD I105N (pyroptosis mutant) (protein, UniProt Q9D8T2 1-487)
chain: T2 sequence with I105N
With B4, the binding entry in assay [9] was “binds”.

B5: full-length mouse GSDMD overexpressed in HEK293 cells (protein, UniProt Q9D8T2 1-487)
chain: T2 sequence
On to B5, for which the binding result in assay [11] is on record as “no binding”; in assay [9], “binds”.

B6: CDC37, endogenous in YAMC cells (protein, UniProt Q61081 1-379)
chain: MVDYSVWDHIEVSDDEDETHPNIDTASLFRWRHQARVERMEQFQKEKEELDRGCRECKRKVAECQRKLKELEVAESDGQVELERLRAEAQQLRKEERSWEQKLEDMRKKEKNMPWNVDTLSKDGFSKSMVNTKPEKAEEDSEEAREQKHKTFVEKYEKQIKHFGMLHRWDDSQKYLSDNVHLVCEETANYLVIWCIDLEVEEKCALMEQVAHQTMVMQFILELAKSLKVDPRACFRQFFTKIKTADHQYMEGFKYELEAFKERVRGRAKLRIEKAMKEYEEEERKKRLGPGGLDPVEVYESLPEELQKCFDVKDVQMLQDAISKMDPTDAKYHMQRCIDSGLWVPNSKSGEAKEGEEAGPGDPLLEAVPKAGNEKDVSA
For the molecule B6, in [12], the binding result was “binds”.
